Measured values reported in PubChem BioAssay AID360 (National Center for Advancing Translational Sciences (NCATS), 2006).
Screen size: about 48,000 compounds; about 550 (1.1%) were called active. About 4% were inconclusive and are not listed. No stated cut-off is given here; in the data, active means potency below about 15 µM; inconclusive means mostly about 16 µM to 33 µM; inactive means weaker than that. Some of the results follow.

target: Lysosomal acid glucosylceramidase (Homo sapiens) (UniProt P04062); experiment: Glucocerebrosidase; settings: purified enzyme, resorufin glucoside fluorescence (screen aimed at inhibitors), 20 min;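 further: the screen sought inhibitors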
Chain of UniProt P04062 (P04062 whole entry, looked up): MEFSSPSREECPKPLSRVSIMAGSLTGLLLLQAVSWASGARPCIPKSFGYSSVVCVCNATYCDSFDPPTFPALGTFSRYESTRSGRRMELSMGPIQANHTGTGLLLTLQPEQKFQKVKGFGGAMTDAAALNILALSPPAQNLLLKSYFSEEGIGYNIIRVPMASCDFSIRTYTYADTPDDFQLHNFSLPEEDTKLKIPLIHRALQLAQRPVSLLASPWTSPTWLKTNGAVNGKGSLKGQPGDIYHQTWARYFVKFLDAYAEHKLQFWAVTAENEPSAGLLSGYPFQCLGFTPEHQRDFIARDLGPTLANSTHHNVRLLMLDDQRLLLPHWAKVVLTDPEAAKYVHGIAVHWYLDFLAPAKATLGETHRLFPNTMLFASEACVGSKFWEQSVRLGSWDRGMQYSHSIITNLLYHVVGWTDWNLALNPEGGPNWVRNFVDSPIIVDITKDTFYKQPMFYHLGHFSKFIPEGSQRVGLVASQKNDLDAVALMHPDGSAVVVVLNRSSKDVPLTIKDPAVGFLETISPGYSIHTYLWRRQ
Outline: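 Compounds titrated against 0.2 nM normal enzyme, 30 uM resorufin beta-D-glucopyranoside substrate, citrate/phosphate buffer with taurocholate and tween-20, pH 5.9. Reaction ran 20 min at room temperature; fluorescence (Ex 548/Em 600) gave AC50.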
Potency means the concentration at half of the fitted maximal effect.

Potency, active:
CC1(Cc2cn(CCC#N)c3ccccc23)OCCO1 14.4 µM
O=C(CCCCCn1c(=S)[nH]c2cc3c(cc2c1=O)OCO3)N1CCN(C2CCCCC2)CC1 0.896 µM

Potency, inactive:
Cn1cccc1C(=O)NC(=O)COC(=O)c1ccccc1O > 76.9 µM
COc1ccc(CN(Cc2nc3ccccc3c(=O)[nH]2)C(=O)NC2CCCCC2)cc1 > 76.9 µM
CC(NC(=O)c1ccco1)c1ccc2c(c1)OCCO2 (configuration not stated) > 76.9 µM
O=C(CN1C(=O)CSc2ccccc21)Nc1ccc2c(c1)OCCO2 > 76.9 µM
O=C(CCc1ccccc1)NCCCN1CCOCC1 > 76.9 µM
Cc1cc(C)c2c(=O)n(-c3ccccc3)[nH]c2n1 > 76.9 µM
Cc1c(C(=O)NC2CCCCC2)oc2c1C(=O)CC(C)(C)C2 > 76.9 µM
CC(C)C(=O)Nc1nnc(CCc2nnc(NC(=O)C(C)C)s2)s1 > 76.9 µM
CC(=O)c1cc(CN2C(=O)c3ccccc3C2=O)cs1 > 76.9 µM
Cn1c(SCc2ccccc2F)nnc1-c1cnccn1 > 76.9 µM
Cc1ccc(C(C)NC(=O)c2c(C)noc2C)cc1C (configuration not stated) > 76.9 µM
CC(C)OC(=O)Cn1c(=O)sc2ccccc21 > 76.9 µM
CCn1c(=O)n(CC)c2cc(S(N)(=O)=O)c(C)cc21 > 76.9 µM
Cc1noc(C)c1COC(=O)c1cc(C)n(-c2ccccc2)c1C > 76.9 µM
CC1Cc2ccccc2N1C(=O)CN1C(=O)CN(C)C(=O)c2ccccc21 (configuration not stated) > 76.9 µM
O=C(CN1C(=O)c2ccccc2S1(=O)=O)N1CCN(c2ccc(F)cc2)CC1 > 76.9 µM
CC1(C)CC(=O)C2=C(C1)NC(=O)CC2C(=O)NCc1ccc(F)cc1 (configuration not stated) > 76.9 µM
O=C(NCc1ccccc1)N1CCn2c(nc3ccccc32)C1 > 76.9 µM
Cc1ccc(C)c(CSc2nnc(-c3ccccn3)n2N)c1 > 76.9 µM
NC(=O)CNC(=O)C1CCCc2c1[nH]c1ccc(Cl)cc21 (configuration not stated) > 76.9 µM
CCSc1nnc(NC(=O)CSc2nnc(Cc3cccn3C)n2CCc2ccccc2)s1 > 76.9 µM
CCCCSc1nc(C)c(CC(=O)O)c(=O)[nH]1 > 76.9 µM
CCOc1ccc(-c2nnc(-c3cccnc3)o2)cc1OCC > 76.9 µM
Cn1cnc2c1c(=O)n(Cc1c(Cl)cccc1Cl)c(=O)n2C > 76.9 µM
COC(=O)n1c(=O)oc2cc(S(=O)(=O)N3CCOCC3)ccc21 > 76.9 µM
O=C(CSc1nnc(-c2cccs2)n1-c1ccccc1)NCC1CCCO1 (configuration not stated) > 76.9 µM
O=C(c1ccccc1-c1nc2ccccc2[nH]1)N1CCCCC1 > 76.9 µM
CS(=O)(=O)N1CCc2cc(S(=O)(=O)Nc3ccc4c(c3)OCCO4)ccc21 > 76.9 µM
CC(SCc1ccccc1)C(=O)NC1CCCC1 (configuration not stated) > 76.9 µM
Fc1ccc(Br)cc1C1C=C(c2ccc(Br)s2)Nc2ncnn21 (configuration not stated) > 76.9 µM
COc1ccc(C)cc1-n1nnnc1SCc1nc2ccccc2s1 > 76.9 µM
c1ccc(-c2nc[nH]c2-c2ccccc2)cc1 > 76.9 µM
O=C(NCCc1c[nH]c2ccccc12)c1ccc(S(=O)(=O)NCc2ccco2)cc1
COc1ccc(OC)c(C(=O)CC2OC(=O)c3ccccc32)c1 (configuration not stated) > 76.9 µM
CC1(C)CC2(CC(C)(C)NC(=O)N2)NC(=O)N1 > 76.9 µM
N#Cc1nc(COc2ccc(Cl)cc2Cl)oc1N1CCN(c2ccccc2)CC1 > 76.9 µM
CCC(=O)N1c2ccc(S(=O)(=O)CCC(=O)NC3CCCC3)cc2CC1C (configuration not stated) > 76.9 µM
O=c1c2cc3c(cc2[nH]c(=S)n1Cc1ccco1)OCO3 > 76.9 µM
CC(=O)c1ccc(NC(=O)c2ccc(S(=O)(=O)N3CCCC3)cc2)cc1
COc1cc(OC)c(NC(=O)c2ccoc2C)cc1Cl > 76.9 µM
Cc1cccc(N2CCN(C(=O)COc3cc(=O)n(C)c4ccccc34)CC2C)c1 (configuration not stated) > 76.9 µM
Fc1ccc(-c2nnc(CN3CCN(c4ncc(C(F)(F)F)cc4Cl)CC3)o2)cc1 > 76.9 µM
O=C(NC1CCCC1)C1CC1c1ccccc1 (configuration not stated) > 76.9 µM
CCCOc1ccc(C(C)(O)CN2CCOCC2)cc1 (configuration not stated) > 76.9 µM
O/N=C1/CCSc2ccccc21 > 76.9 µM
O=C(O)C1CC(=O)N(CCc2c[nH]c3ccccc23)C1 (configuration not stated) > 76.9 µM
CCOC(=O)N1CCC(NC(=O)Cn2cccc2C(=O)c2ccccc2C)CC1 > 76.9 µM
COc1ccc(Cl)cc1NC(=O)c1oc(C)nc1C > 76.9 µM
COc1ccccc1-n1c(CNC(=O)c2ccco2)nnc1SCC(=O)Nc1cc(C)ccc1C > 76.9 µM
Cc1ccc(N(CC(=O)O)S(=O)(=O)c2cccc3nonc23)cc1 > 76.9 µM
Cc1ccc(C(C(=O)NC2CCCCC2)N2CCOCC2)cc1 (configuration not stated) > 76.9 µM
COc1ccc(N2C3=[N+](CC2(C)O)c2ccccc2CC3)cc1 (configuration not stated) > 76.9 µM
Cc1cccc(-n2cnc3cc(C(=O)N4CCCCC4)ccc32)c1 > 76.9 µM
Cc1cc(CN2C(=O)c3ccccc3C2=O)on1 > 76.9 µM
COc1ccc(-c2cc3ccccc3n2CC(O)Cn2nc(C)cc2C)cc1 (configuration not stated) > 76.9 µM
O=C(CN1C(=O)COc2ccccc21)N(Cc1ccc2c(c1)OCO2)CC1CCCO1 (configuration not stated) > 76.9 µM
CN(Cc1ccccc1)c1nc2c(c(=O)[nH]c(=O)n2C)n1CCOc1ccccc1 > 76.9 µM
COC(=O)c1cc(Br)c(=O)n(-c2ccccc2OC)c1 > 76.9 µM
COC(=O)[C@@H](NC(=O)Nc1ccc(C(C)=O)cc1)C(C)C > 76.9 µM
COc1ccccc1NC(=O)C1CCCCC1 > 76.9 µM
COc1ccc(OC)c(NC(=O)C2C3CC4OC(=O)C2C4C3)c1 (configuration not stated) > 76.9 µM
O=C(Nc1c(F)c(F)c(F)c(F)c1F)NC1CCCCC1 > 76.9 µM
C=CCn1c(-c2ccc(OC)c(OC)c2)cs/c1=N\c1ccccn1 > 76.9 µM
COc1cc(NC(=O)c2ccc(COc3ccccc3Br)o2)cc(OC)c1OC > 76.9 µM
COC(=O)N1CC(=O)N(OC)C1c1ccc(Cl)cc1Cl (configuration not stated) > 76.9 µM
Cc1ccc(C)c(NC(=O)CCN2CC(C)OC(C)C2)c1 (configuration not stated) > 76.9 µM
COc1ccc(-c2cc3nc(C)c(CCC(=O)NCc4ccco4)c(C)n3n2)c(OC)c1 > 76.9 µM
COc1ccc(C(=O)CSc2nnc(COc3ccccc3)n2Cc2ccco2)cc1 > 76.9 µM
Cc1cc(N2CC(=O)N(CCc3ccccc3)C(=O)C2)n2ncnc2n1 > 76.9 µM
CN(C)c1nc(Nc2ccc(Cl)cc2)nc(OCC#N)n1 > 76.9 µM
COc1ccccc1S(=O)(=O)Cc1ccc(C(=O)NCc2cccs2)o1 > 76.9 µM
O=C(CCn1c(=O)oc2ccccc21)N1CCN(C(c2ccccc2)c2ccccc2)CC1 > 76.9 µM
CC(=O)Nc1ccc(N2CCOCC2)c(C(=O)Nc2cccc(C)c2)c1 > 76.9 µM
CC(=O)c1c(C)nc2nonc2c1N > 76.9 µM
CCOC(=O)c1ccc(-c2n[nH]c(=O)c3ccccc23)cc1 > 76.9 µM
CC1CCCC(C)N1CC(O)COc1ccc(Cl)cc1 (configuration not stated) > 76.9 µM
COc1ccc(S(=O)(=O)Nc2ccc(S(=O)(=O)N3CCCCC3)cc2)cc1 > 15.4 µM
Cc1ccc(S(=O)(=O)NCCC(=O)NC2CCCC2)cc1 > 76.9 µM
Cc1ccc(SCc2cc(=O)[nH]c(N3CCN(Cc4ccccc4)CC3)n2)cc1 > 76.9 µM
O=C(CN1CCN(c2ccccc2)CC1)Nc1nccs1 > 76.9 µM
O=C(OC(C(=O)NCC1CCCO1)c1ccc(F)cc1)c1ccco1 (configuration not stated) > 76.9 µM
Cc1ccc(N(C(=O)Cn2nnc3ccccc32)C(C(=O)NC2CCCCC2)c2cn(C)nc2C)cc1 (configuration not stated) > 76.9 µM
Cc1cc(C)cc(Nc2cc(=O)n(C3CCCCC3)c(=O)[nH]2)c1 > 76.9 µM
O=C(CSc1nnnn1-c1ccc(F)cc1)NC1CCCCC1 > 76.9 µM
CCCC(=O)Nc1cc2c(cc1C(=O)c1ccccc1)OCCO2 > 76.9 µM
O=C(NC1CCCCCC1)c1c(O)c2cccc3c2n(c1=O)CCC3 > 76.9 µM
CCOC(=O)c1ccccc1NC(=O)c1c(F)c(F)c(F)c(F)c1F > 76.9 µM
COc1ccc(OC)c2[nH]c(=O)c(CCNC(=O)c3ccc(S(=O)(=O)N(C)C)cc3)cc12 > 76.9 µM
OC12CCCCC1C(c1ccc3c(c1)OCO3)N(Cc1cccc(F)c1)CC2 (configuration not stated) > 76.9 µM
CC(NC(=O)c1ccccc1NC(=O)c1ccco1)C(=O)O (configuration not stated) > 76.9 µM
